Source: patent US20120107324A1

Molecular target: avb3 and avb5 integrins (on A375M cells)
Assay: cell-based or functional assay

Osteopontin Adhesion (% inhibition) of A375M cells at 5 ug/ml: 14%
B1: 7B1.3A1 (antibody, IgG4, V domains shown)
VH: QVQLVESGGGVVQPGRSLRLSCAASGFTFRSYGMHWVRQAPGKGLEWVAVLWYDGSNKNYADSVKGRFTISRDNSKNTLYLQMNSLRAEDTAMYYCARDGAARRGDYYYYHGMDVWGQGTTVTVSS
VL: [left out - about 100 residues]FTFGPGTKVDIK
